Source: ChEMBL document CHEMBL1201862, “PubChem BioAssay data set” (2004)

System: NCI-H322M
Assay: growth of human tumour cells (NCI), 48 h

Row | SMILES | GI50
1 | CC(NC(=O)C(Cc1ccc(OC(=O)c2ccccc2)cc1)NC(=O)OC(C)(C)C)C(=O)NC(Cc1ccccc1)C(=O)NCC(N)=O (configuration not stated) (Boc-Y(Bz)AFG-NH2; configuration not given here) | inactive: 19.4 µM
2 | N=c1oc2ccccc2cc1C(=O)Nc1cccc2ccccc12 | inactive: > 100 µM
3 | O=C(O)CCC(=O)c1ccc2c(c1)C(C(=O)O)CC2 (configuration not stated) | inactive: > 100 µM
4 | O=c1cc(-c2ccc(Cl)cc2)oc2cc(OCCCOc3ccc4c(=O)cc(-c5ccc(Cl)cc5)oc4c3)ccc12 | inactive: > 100 µM
5 | COc1ccc(/C=C2\CN(C)CC3C2=NC(=S)NC3c2ccc(OC)cc2)cc1 (configuration not stated) | inactive: 4.16 µM
6 | O=C1c2ccccc2C(=O)N1C/C=C/CO | inactive: > 100 µM
7 | COc1ccc(-c2ccccc2)c(N/N=C2\CCCNC2=O)c1 | inactive: > 100 µM
8 | ClC1(Cl)C(c2ccccc2)C1c1ccccc1 (configuration not stated) | inactive: 43.8 µM
9 | C[C@]12CC[C@H]3[C@@H](CCC4=C[C@@H](N5CCCC5)CC[C@@]43C)[C@@H]1C/C(=C\c1ccncc1)[C@@H]2O | inactive: 12.5 µM
10 | CC(=O)/C=C1\Nc2ccccc2N\C1=C/C(C)=O | inactive: 29.2 µM
11 | O=[N+]([O-])c1ccc2nc(O)n[n+]([O-])c2c1 | inactive: > 100 µM
12 | CN(C)c1ccc(/C=N/NC(=O)c2cnc3ccccc3c2)cc1 | inactive: > 100 µM
13 | COc1cccc(Nc2nc(N)nc(N)c2N=O)c1 | inactive: 15.1 µM
14 | CC(C)(C)C1CCC2c3c([nH]c4ccccc34)C3C(=O)N(c4ccc(Br)cc4)C(=O)C3C2C1 (configuration not stated) | inactive: 41.8 µM
15 | COc1c(C(=O)CC2c3c(cc4oc(C)cc(=O)c4c3OC)OC(=N)C2c2nc3ccccc3[nH]2)c(O)c(OC)c2occc12 (configuration not stated) | inactive: > 100 µM
16 | c1ccc(CNc2ccc3[nH]c4cnccc4c3c2)cc1 | inactive: 18.6 µM
17 | N#Cc1cc2c(cc1C#N)/C(=N\c1cccc(N)n1)N/C2=N\c1cccc(N)n1 | inactive: 43.1 µM
18 | C=C(Cl)C(Cl)(CBr)CCCC(C)(C)Cl (configuration not stated) | inactive: 12.5 µM
19 | COC(=O)Cc1c(/C=C/C(C)(C)n2cnc(CCN3C(=O)CCC3=O)c2)[nH]c2ccccc12 | inactive: > 100 µM
20 | Clc1nc(Cl)c(Cl)c(-c2ccccc2)n1 | inactive: 16.8 µM
21 | COc1cc([C@@H]2c3cc4c(cc3[C@@H](NC(=O)c3cccc(N)c3)C3COC(=O)[C@@H]32)OCO4)cc(OC)c1O (some centres not stated) | inactive: 10.2 µM
22 | O=C(NCC#CCO)C(F)(F)F | inactive: > 100 µM
23 | CC(C)(CN1CCCCC1)C(=O)/C=C/c1c(Cl)cccc1Cl | inactive: 1.97 µM

Row | SMILES | GI50
24 | Cc1c2c(nc3ccccc13)C(=O)c1cccnc1C2=O | inactive: 3.37 µM
25 | COc1ccc2oc(=O)c(-c3csc(C)n3)cc2c1 | inactive: > 100 µM
26 | CCC(C)C(C(=O)N/N=C1/SCC(=O)N1c1ccccc1)C(=O)N/N=C1/SCC(=O)N1c1ccccc1 (configuration not stated) | inactive: 97.5 µM
27 | CC1C(c2ccc3c(c2)OCO3)c2cc3c(cc2OC1N1CCOCC1)OCO3 (configuration not stated) | inactive: 47.6 µM
28 | COc1cc([C@@H]2c3cc4c(cc3[C@@H](NCc3ccccc3)C3COC(=O)[C@@H]32)OCO4)cc(OC)c1O (some centres not stated) | inactive: 26.2 µM
29 | O=c1cc(CSc2c(-c3ccccc3)c(=O)n(-c3ccccc3)c(=S)n2-c2ccccc2)[nH]c(=O)[nH]1 | inactive: > 100 µM
30 | Cn1c(=O)n2n(c1=O)C1C(=CC2)C2C=CC1n1c(=O)n(C)c(=O)n12 (configuration not stated) | inactive: > 100 µM
31 | COc1c(OC(C)=O)c(OC(C)=O)cc2c1-c1ccc(SC)c(=O)cc1C(NC(C)=O)CC2 (configuration not stated) | active: 0.619 µM
32 | CC(=O)Nc1ccc(NCC(=O)Nn2cnc3ccc(S(=O)(=O)Nc4ccc(NC(C)=O)cc4)cc3c2=O)cc1 | inactive: > 100 µM
33 | CCCCCCCCCCCCCCCCOCC(CC(F)(F)P(=O)(O)O)OC(C)=O (configuration not stated) | inactive: > 50 µM
34 | O=C(N/N=C\c1ccc([N+](=O)[O-])s1)c1ccncc1 | inactive: 24.8 µM
35 | COc1cc(O)c2c(O)c3c(=O)oc(C)cc3c(OC)c2c1 [PAEPALANTINE] | inactive: 26.1 µM
36 | FC(F)(F)c1ccc(/N=N/N2CCCC2)cc1 | inactive: > 100 µM
37 | CC(=O)N1CC(=O)NC1=S | inactive: > 100 µM
38 | C#CCC(N)(CO)C(=O)O (configuration not stated) | inactive: > 100 µM
39 | CO/C(=N\N=C\c1ccc(Cl)cc1Cl)c1ccncc1 | inactive: > 10 µM
40 | COc1cc(O)c2c(=O)cc(-c3ccc(O)cc3O)oc2c1CC=C(C)C [ARTOCARPETIN A] | inactive: 19.5 µM
41 | CC(=O)c1c2c(cc3c1CC1(Cc4cc5c(cc4C1=O)CCC5)C3)CCC2 (configuration not stated) | inactive: > 100 µM
42 | CN(C)Cc1c[nH]c2ncnc(O)c12 | inactive: > 100 µM
43 | Cn1ccc(C(=O)NCCCCCNC(=O)c2ccn(C)c(=O)c2O)c(O)c1=O | inactive: > 100 µM
44 | c1ccc(/N=C2\c3ccsc3/C(=N/c3ccccc3)c3ccsc32)cc1 | inactive: 2.78 µM
45 | O=C(c1ccccc1)c1c(CC(O)c2ccccn2)n(C(=O)c2ccccc2)c2ccccc12 (configuration not stated) | inactive: 17 µM
46 | CS(=O)(=O)CS(=O)(=O)OCCCl | inactive: 396 µM

Row | SMILES | GI50
47 | CCN(CC)c1c(-c2c(N(CC)CC)c(OC(C)=O)c3sccn3c2=O)c(=O)n2ccsc2c1OC(C)=O | inactive: > 100 µM
48 | CCOC(=O)C1CCCN1C(=O)c1ccccc1Cl (configuration not stated) | inactive: > 100 µM
49 | Nc1nc(-c2cccs2)cs1 | inactive: > 100 µM
50 | CC(C)/C(Cl)=N/OC(=O)Nc1ccc(OC(F)(F)F)cc1 | inactive: 16.7 µM
51 | COC(=O)C1(C)CC2C(C)(CCC3(C)C4=CC=C5C(=CC(=O)C(O)=C5C)C4(C)CCC23C)CC1O (configuration not stated) | inactive: 2.61 µM
52 | Cc1occc1/C(S)=N\c1ccc(Cl)c(COC(C)(C)C)c1 | inactive: 17.2 µM
53 | CN1CCOC1(C)CO (configuration not stated) | inactive: > 100 µM
54 | CC1(C)OC(=S)N(c2ccccc2)C12C=Cc1cc3ccccc3nc1S2 (configuration not stated) | inactive: > 100 µM
55 | COc1cc(Cc2nccc3cc(OC)c(OC)cc23)c(C(C)=O)cc1OC | inactive: 56.2 µM
56 | CCOc1ccccc1NC(=O)CCc1n[nH]c(=S)o1 | inactive: > 100 µM
57 | C=C(C)C1CC(=O)C(C)=C(O)C1 (configuration not stated) | inactive: > 100 µM
58 | O=c1[nH]c(=O)n(C2CC(O)C(CO)O2)cc1/C=C/Br (configuration not stated) | inactive: > 100 µM
59 | COc1cc(O)c2c(=O)cc(C3(OC(C)=O)C=CC(OC4OC(CO)C(O)C(O)C4O)C=C3)oc2c1 (configuration not stated) | inactive: > 100 µM
60 | CC(=O)OC1CC2C(C)(C)C(=O)C=C[C@]2(C)C2CCC3(C)C(c4ccoc4)[C@@H](O)[C@H]4O[C@]43[C@]12C (some centres not stated) | inactive: 26.9 µM
61 | CC(=O)OC1(C(C)=O)CC2(c3ccccc3)OC1(c1ccccc1)c1ccccc12 (configuration not stated) | inactive: 67.5 µM
62 | CC(C)OC(=O)NNc1c(Cl)cc(Cl)cc1Cl | inactive: 26.3 µM
63 | Nc1ncc2ncn(C3CCC(CO)O3)c2n1 (configuration not stated) | inactive: > 100 µM
64 | SC1=NNC2(C(S)=N1)c1ccccc1-c1ccccc12 | inactive: > 10 µM
65 | COc1cc2c(c(OC)c1OC)-c1ccc(SC)c(=O)cc1[C@@H](NC(=O)c1ccc(C#N)cc1)CC2 | active: < 0.01 µM
66 | CCOC(=O)c1c2c(n(-c3ccc(C)cc3)c1C)-c1ccccc1C(=O)C2(C(=O)OCC)C(=O)OCC | inactive: 69.2 µM
67 | COS(C)(=O)=O [METHANESULFONIC ACID METHYL ESTER] | inactive: > 2 µM
68 | COc1ccc(N2CN3OC(=O)N(c4ccc(OC)cc4)[C@@]3(c3ccccc3)C2)cc1 | inactive: 35.2 µM
69 | O=c1[nH]c(-c2ccc(-c3nc4cc([N+](=O)[O-])ccc4c(=O)[nH]3)cc2)nc2cc([N+](=O)[O-])ccc12 | inactive: > 100 µM

Row | SMILES | GI50
70 | CC(C)N/C(N)=N/C#N | inactive: > 100 µM
71 | CC(=O)O[C@H]1CCC2[C@@H]3CC[C@]4(C)CC(=O)C=C[C@]4(C)C3CC[C@@]21C (some centres not stated) | inactive: 48.3 µM
72 | CC(C)(C)c1ccc(O)c(C[N+](C)(C)C)c1 | inactive: > 100 µM
73 | CC(=O)OC(CCC1(C)OC1COc1ccc(CCNC(=O)c2ccccc2)cc1)C(C)(C)OC(C)=O (configuration not stated) | inactive: 99.5 µM
74 | c1cc2c(c(-c3c4ccccc4nc4ccccc34)c1)CC1(CC2)OCCO1 | inactive: > 100 µM
75 | CN(C)CCCCN1c2ccccc2Sc2cc(N=[N+]=[N-])ccc21 | inactive: 2.61 µM
76 | Cc1cc(C)c(S(=O)(=O)N(CCCCN)OCCCN)c(C)c1 | inactive: 15.5 µM
77 | Oc1nc2c(c(-c3ccc(F)cc3)n1)COC/C2=C\c1ccc(F)cc1 | inactive: > 100 µM
78 | CC(C)(C)CC(C)(C)c1cc2c(O)c(c1)Cc1cc(C(C)(C)CC(C)(C)C)cc(c1O)Cc1cc(C(C)(C)CC(C)(C)C)cc(c1O)Cc1cc(C(C)(C)CC(C)(C)C)cc(c1O)Cc1cc(C(C)(C)CC(C)(C)C)cc(c1O)C2 | inactive: > 100 µM
79 | NNC(=O)Nc1nc2ccc(NN)cc2[nH]1 | inactive: 62.2 µM
80 | [N-]=[N+]=CC(=O)OC(CCl)CCl | inactive: > 100 µM
81 | O=C1c2cccc(NCCCNCCO)c2C(=O)c2cccc(NCCCNCCO)c21 | inactive: 1.49 µM
82 | Nc1ncnc2c1ncn2[C@@H]1C[C@H](NO)[C@@H](O)[C@H]1O | inactive: > 100 µM
83 | CC1=C(C#N)c2nc3ccccc3n2C(=O)C1(C)CCO (configuration not stated) | inactive: > 100 µM
84 | C[C@]12CCC(=O)C(O)=C1CC[C@@H]1C2CC[C@]2(C)Nc3c(cnn3-c3ccccc3)CC12 (some centres not stated) | inactive: 59.8 µM
85 | CCOC(=O)NC(=O)c1cn(CCN2CCN(C(=O)CCCCCCCCCCNc3ncnc4c3ncn4C3OC(CO)C(O)C3O)CC2)c(=O)[nH]c1=O (configuration not stated) | inactive: > 100 µM
86 | Cc1c2ncccc2cc2oc3ccccc3c(=O)c12 | inactive: 58.7 µM
87 | CC(=O)O/N=C/c1ncccc1OC(C)=O | inactive: > 100 µM
88 | O=[N+]([O-])/C(C(Cl)=C(Cl)Cl)=C(\Nc1cccc2cccnc12)SCc1ccccc1 | inactive: 20.3 µM
89 | O=C(NCCc1ccccc1)[C@H]1CCCC[C@@H]1CCO | inactive: > 100 µM
90 | COc1c2c(cc3c1C(=O)Cc1ccc4c(c1CN(C)CC3)OCO4)OCO2 | inactive: 80.9 µM
91 | O=C([O-])C(O)C(O)C(O)C(O)C(=O)O.[K+] (configuration not stated) | inactive: > 100 µM
92 | [O-][S+](Nc1ccccc1)c1ccc(Cl)c(Cl)c1 (configuration not stated) | inactive: 50.2 µM

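Five concentrations, 48 hours, 96-well plates. GI50 is the concentration that inhibits growth by half.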 Calls of active or inactive are those of the source. Rule as the data show it: active = GI50 up to about 1.1 µM and inactive = higher. Peptide text beside a SMILES is read from it. * marks the point of attachment. Boc = CC(C)(C)OC(=O)*; Bz = O=C(c1ccccc1)*
